Source: PubChem BioAssay AID651820 (National Center for Advancing Translational Sciences (NCATS), 2012)
Values joined by “and” are separate entries in the source; they are usually repeats but may differ in a detail not shown here. Identical values can stand only once. Out of some 340,000 compounds screened, about 12,000 (3.5%) were called active. Inconclusive means that the source gave no clear call. Such entries were picked first, then a sample of the others. Calls follow the shape of the dose curve; as a rule, active = well fitted inhibition curve with a large enough effect; inconclusive = small, poorly fitted or top-dose-only effect, or another doubt; inactive = no such curve, though single readings can be large or run the other way. Where the call is inconclusive, the potency comes from a doubtful curve fit.
% is scaled to controls: 0 for no effect and ±100 for the full control effect; potency is read from the fitted curve at half-maximal effect; tags tell the direction and shape of the fitted curve.

Experiment: qHTS Assay for Inhibitors of Hepatitis C Virus (HCV)
Details: Huh7.5.1 HCVcc-Cre (HCVcc is cell-culture hepatitis C virus) infection, luciferase reporter, 44 h; activity change, negative = inhibition: at 41.8 µM (top of the series)
How it was run: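 Infectious HCV cell culture screen: compound-treated cells (1,000/well, pre-plated 4 h) are infected with HCVcc-Cre at roughly 0.5 moi and grown 44 h. Infection is quantified by luciferase signal after 15 min substrate incubation at room temperature.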
For `CCO[C@@H]1OC(C(=O)N2CCCCCCC2)=C[C@H](c2ccc(C(F)(F)F)cc2)[C@H]1CCCO`, the Potency was inconclusive: 3.16 µM [inhibitor, single point]. For `CCCn1c(=NC(C)=O)c(C(=O)OCC)cc2c(=O)n3ccccc3nc21`, the “activity change, negative = inhibition” value was inactive: -22.4%. In the case of `CS(=O)(=O)c1cnc(-c2ccccc2)nc1Sc1ccc(F)cc1`, the Potency was inconclusive: 2.51 µM [inhibitor, full curve]. With `CCc1nnc(NC(=O)CSc2nc3c(c(=O)n2C)SC(C)C3)s1` (stereo not given) the Potency was inconclusive: 10 µM [inhibitor, single point]. For `CCOc1ccc(C(=O)CC(=O)C(=O)NCCc2ccc(OC)c(OC)c2)cc1`, the Potency was inconclusive: 10 µM [inhibitor, partial curve]. In the case of `COc1ccc(Nc2ccc(S(=O)(=O)N3CCCCC3)cc2[N+](=O)[O-])cc1`, the Potency was inconclusive: 31.6 µM [inhibitor, single point]. With `c1ccc(-c2nn3cnnc3c3ccccc23)cc1` the Potency was inconclusive: 22.4 µM [inhibitor, single point]. In the case of `S=C(NCc1ccco1)N1CCN(c2nc(-c3ccc(Cl)cc3)cs2)CC1`, the Potency was inconclusive: 11.2 µM [inhibitor, partial curve]. For `CC(C)NC(=O)c1ccccc1NC(=O)C1COc2ccccc2O1` (stereo not given), the Potency was inconclusive: 4.47 µM [inhibitor, partial curve]. For `CC1=CC(C)(C)N(C(=O)C(C)N2C(=O)c3ccccc3C2=O)c2ccc(C)cc21` (stereo not given), the Potency was inconclusive: 1.58 µM [inhibitor, full curve, poor fit]. In the case of `COC(=O)c1sc(NC(=O)CSc2n[nH]c(N)n2)c(C(=O)OC)c1C`, the Potency was inconclusive: 12.6 µM [inhibitor, partial curve]. In the case of `Cc1cc(Cl)ccc1NC(=O)CSc1nnc(-c2ccncc2)n1Cc1ccco1`, the Potency was inconclusive: 11.2 µM [inhibitor, partial curve, poor fit]. For `Cc1cccc(-n2nnnc2SCC(=O)NCC2CCCO2)c1` (stereo not given), the “activity change, negative = inhibition” value was inactive: -3.09%. With `CCCC(=O)OCCNc1cc(Sc2nc3ccccc3[nH]2)c2nonc2c1[N+](=O)[O-]` the Potency was inconclusive: 31.6 µM [inhibitor, single point]. For `O=S1(=O)CC=C(CSc2nc3ccccc3[nH]2)C1`, the “activity change, negative = inhibition” value was inactive: 14.9%. For `CN(C)C(CNC(=O)c1ccc(NC(=O)c2cccs2)cc1)c1ccccc1` (stereo not given), the “activity change, negative = inhibition” value was inactive: -20.8%. In the case of `COc1ccc(NC(=O)Cn2nnc(C(=O)NCc3cccs3)c2N)c(OC)c1`, the Potency was inconclusive: 22.4 µM [inhibitor, single point]. In the case of `CCOc1cc(N2CCOCC2)c(OCC)cc1NC(=O)COC(=O)C1CCCN1S(=O)(=O)c1ccccc1F` (stereo not given), the Potency was inconclusive: 14.1 µM [inhibitor, partial curve]. With `CCSc1nnc2c(n1)OC(C)(C)Nc1ccccc1-2` the “activity change, negative = inhibition” value was inactive: 24.2%. In the case of `Cc1ccc(C2C(C#N)=C(N)Oc3c2oc(CO)cc3=O)o1` (stereo not given), the “activity change, negative = inhibition” value was inactive: 13.4%. In the case of `Cc1nc2cc(NC(=O)N3CCN(c4ccccn4)CC3)ccc2o1`, the Potency was inconclusive: 31.6 µM [inhibitor, single point]. For `CCOc1cc(CNc2ccc(O)cc2)cc(Br)c1OCc1ccccc1F`, the “activity change, negative = inhibition” value was inactive: -25.5%. With `Cc1ccc(-c2c[n+]3c(n2-c2ccccc2)SCC3)cc1` the Potency was inconclusive: 10 µM [inhibitor, partial curve]. For `COc1ccc(-c2nc3c(s2)CN(S(C)(=O)=O)CC3)cc1OC`, the “activity change, negative = inhibition” value was inactive: -0.0104%. In the case of `CCCOc1ccccc1NC(=O)/C=C/C(N)=O`, the Potency was inconclusive: 31.6 µM [inhibitor, single point]. For `Nc1nonc1/C(=N/O)N1CCN(CCO)CC1`, the “activity change, negative = inhibition” value was inactive: 6.06%. In the case of `CC1CCN(C(=O)c2ccc(S(=O)(=O)Cc3ccccc3F)c([N+](=O)[O-])c2)CC1`, the Potency was inconclusive: 11.2 µM [inhibitor, single point]. For `CCOc1ccccc1CNS(=O)(=O)c1csc(C(N)=O)c1`, the Potency was inconclusive: 22.4 µM [inhibitor, single point]. In the case of `Cc1ccc(S(=O)(=O)N2CCN(S(=O)(=O)N3CCCCC3)CC2)c(C)c1`, the Potency was inconclusive: 10 µM [inhibitor, partial curve]. In the case of `Cc1cc(C(C)(C)C)cc(C)c1Cn1c2[n+](c3ccc(C(F)(F)F)cc31)CCCCC2`, the Potency was active: 7.08 µM. In the case of `CCCCCCC1CCC(C(=O)NC(CCSC)C(=O)NC(C(=O)OC)C(C)C)CC1` (stereo not given), the Potency was inconclusive: 2 µM [inhibitor, single point]. For `CCOC(=O)c1cccc(NC(=O)Nc2ccc(OCC)cc2)c1`, the Potency was inconclusive: 35.5 µM [inhibitor, partial curve]. In the case of `Cc1ccc(CN2CCN(Cc3cnn(-c4ccc(Cl)cc4)c3)CC2CCO)o1` (stereo not given), the Potency was inconclusive: 11.2 µM [inhibitor, partial curve]. With `CCOc1ncccc1C(=O)OCC(=O)Nc1cc(C(C)(C)C)ccc1OC` the “activity change, negative = inhibition” value was inactive: -23.1%. For `CN(C)S(=O)(=O)N1CCC(Oc2ccc(C(=O)NC3Cc4ccccc4C3)cc2)CC1`, the Potency was active: 3.55 µM. With `COc1cc(C2c3c(n[nH]c3C)C(=O)N2c2ccc(Br)cc2)ccc1O` (stereo not given) the Potency was “inactive and inconclusive: 31.6 µM [inhibitor, single point]”. For `CCCOc1ccc(S(=O)(=O)NCCCN2CCOCC2)c2ccccc12`, the Potency was inconclusive: 2.51 µM [inhibitor, single point]. With `COCCCNC(=O)CCc1c(C)nc2c(c(C)nn2-c2ccccc2)c1C` the Potency was inconclusive: 22.4 µM [inhibitor, single point]. With `C=C(C)COc1ccc(-c2nc(N)ncc2-c2ccc(Br)cc2)c(O)c1` the Potency was inconclusive: 22.4 µM [inhibitor, single point]. For `CCCCCC1CCC(c2n[nH]c(=S)n2C)CC1` (stereo not given), the “activity change, negative = inhibition” value was inactive: -2.55%. For `CC(C)(C)c1cc(C(F)(F)F)n2ncc(-c3ccccc3)c2n1`, the Potency was inconclusive: 3.98 µM [inhibitor, full curve, poor fit]. With `O=C(CN1C(=O)NC2(CCCC2)C1=O)NNC(=O)c1ccccc1` the “activity change, negative = inhibition” value was inactive: 0.16%. In the case of `COCCNc1nc2c(c(=O)n(C)c(=O)n2C)n1Cc1cccc(C)c1`, the Potency was active: 10 µM. For `Cc1ccc(NCCCCO)cc1C`, the “activity change, negative = inhibition” value was inactive: 7.53%. With `CN(Cc1ccccc1)c1nc2c(c(=O)n(C)c(=O)n2C)n1CCSc1ncccn1` the “activity change, negative = inhibition” value was inactive: -16.9%.
